According to PMC12820563, “FoxP3 forms a head-to-head dimer in vivo and stabilizes its multimerization on adjacent microsatellites”:
The list shows a part of the results.

These sequences were tested against T1, MBP-FoxP1dN (Mus musculus, UniProt P58462 326-579) (assay: PD-seq (MBP pull-down with sequencing); 20 mM Tris-HCl pH 7.5, 100 mM NaCl, 1.5 mM MgCl2, 0.4 uM protein, 0.1 uM dsDNA library, 30 min, room temperature, amylose pull-down; high values mean tight binding). Details: protein: recombinant; tags: His6-MBP; chain copies: 2; dsDNA, one strand shown.
T1 sequence: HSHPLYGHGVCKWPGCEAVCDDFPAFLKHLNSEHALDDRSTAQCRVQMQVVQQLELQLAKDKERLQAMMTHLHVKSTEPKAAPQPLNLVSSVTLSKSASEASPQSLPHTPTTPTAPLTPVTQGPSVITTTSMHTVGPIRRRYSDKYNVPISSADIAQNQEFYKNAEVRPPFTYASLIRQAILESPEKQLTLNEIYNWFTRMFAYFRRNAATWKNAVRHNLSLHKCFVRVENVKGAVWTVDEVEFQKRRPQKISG
Summary of the method: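 Binding is the reads-per-million enrichment of pull-down relative to input, pooled across replicates. For this, 0.4 µM His6-MBP-tagged mouse FoxP3 or FoxP1 fragment lacking the N-terminus, made in E. coli, was incubated with 0.1 µM Klenow-filled double-stranded degenerate DNA library for 30 min at room temperature in Tris pH 7.5 buffer with NaCl and MgCl2. Complexes bound to amylose resin were washed three times before proteinase K released the DNA for PCR barcoding and Illumina sequencing.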

| Sequence | binding signal |
| --- | --- |
| GATGATTGTTCTCCCAGCTGATGAATTACTCGTCTCGAGTAAACAAATTTTCCTAATCTTTCTGTTCAAGCGCCATCTAC | 0.904 RPM ratio (pull-down/input) |
| GATGATTGTTCTCCCAGCTGATGAATTCATGGATTCGAGTAAACAAATTTTCCTAATCTTTCTGTTCAAGCGCCATCTAC | 0.883 RPM ratio (pull-down/input) |
| GATGATTGTTCTCCCAGCTGATGAATTTGTAGTGTCGAGTAAACAAATTTTCCTAATCTTTCTGTTCAAGCGCCATCTAC | 1.2 RPM ratio (pull-down/input) |
| GATGATTGTTCTCCCAGCTGATGAATTATGTTTGTCGAGTAAACAAATTTTCCTAATCTTTCTGTTCAAGCGCCATCTAC | 2.67 RPM ratio (pull-down/input) |
| GATGATTGTTCTCCCAGCTGATGAATTTTTGGAATCGAGTAAACAAATTTTCCTAATCTTTCTGTTCAAGCGCCATCTAC | 0.943 RPM ratio (pull-down/input) |
| GATGATTGTTCTCCCAGCTGATGAATTCACGTTGTCGAGTAAACAAATTTTCCTAATCTTTCTGTTCAAGCGCCATCTAC | 1.11 RPM ratio (pull-down/input) |
| GATGATTGTTCTCCCAGCTGATGAATTAAGGCACTCGAGTAAACAAATTTTCCTAATCTTTCTGTTCAAGCGCCATCTAC | 0.949 RPM ratio (pull-down/input) |
| GATGATTGTTCTCCCAGCTGATGAATTTTGTTGGTCGAGTAAACAAATTTTCCTAATCTTTCTGTTCAAGCGCCATCTAC | 2.26 RPM ratio (pull-down/input) |
| GATGATTGTTCTCCCAGCTGATGAATTCCTCACATCGAGTAAACAAATTTTCCTAATCTTTCTGTTCAAGCGCCATCTAC | 0.862 RPM ratio (pull-down/input) |
| GATGATTGTTCTCCCAGCTGATGAATTAGGGCGGTCGAGTAAACAAATTTTCCTAATCTTTCTGTTCAAGCGCCATCTAC | 0.824 RPM ratio (pull-down/input) |
| GATGATTGTTCTCCCAGCTGATGAATTTGGTTAGTCGAGTAAACAAATTTTCCTAATCTTTCTGTTCAAGCGCCATCTAC | 0.953 RPM ratio (pull-down/input) |
| GATGATTGTTCTCCCAGCTGATGAATTACTGATCTCGAGTAAACAAATTTTCCTAATCTTTCTGTTCAAGCGCCATCTAC | 0.94 RPM ratio (pull-down/input) |
| GATGATTGTTCTCCCAGCTGATGAATTACTTTGATCGAGTAAACAAATTTTCCTAATCTTTCTGTTCAAGCGCCATCTAC | 1.07 RPM ratio (pull-down/input) |
| GATGATTGTTCTCCCAGCTGATGAATTACAGCACTCGAGTAAACAAATTTTCCTAATCTTTCTGTTCAAGCGCCATCTAC | 1.05 RPM ratio (pull-down/input) |
| GATGATTGTTCTCCCAGCTGATGAATTTAATCAGTCGAGTAAACAAATTTTCCTAATCTTTCTGTTCAAGCGCCATCTAC | 0.906 RPM ratio (pull-down/input) |
| GATGATTGTTCTCCCAGCTGATGAATTGATCTCCTCGAGTAAACAAATTTTCCTAATCTTTCTGTTCAAGCGCCATCTAC | 0.923 RPM ratio (pull-down/input) |
| GATGATTGTTCTCCCAGCTGATGAATTGTGTGTGTCGAGTAAACAAATTTTCCTAATCTTTCTGTTCAAGCGCCATCTAC | 1.52 RPM ratio (pull-down/input) |
| GATGATTGTTCTCCCAGCTGATGAATTTATCCGATCGAGTAAACAAATTTTCCTAATCTTTCTGTTCAAGCGCCATCTAC | 0.999 RPM ratio (pull-down/input) |
| GATGATTGTTCTCCCAGCTGATGAATTTGGTAATTCGAGTAAACAAATTTTCCTAATCTTTCTGTTCAAGCGCCATCTAC | 1.09 RPM ratio (pull-down/input) |
| GATGATTGTTCTCCCAGCTGATGAATTCTCAAATTCGAGTAAACAAATTTTCCTAATCTTTCTGTTCAAGCGCCATCTAC | 0.911 RPM ratio (pull-down/input) |
| GATGATTGTTCTCCCAGCTGATGAATTATCAGCGTCGAGTAAACAAATTTTCCTAATCTTTCTGTTCAAGCGCCATCTAC | 0.948 RPM ratio (pull-down/input) |

| Sequence | binding signal |
| --- | --- |
| GATGATTGTTCTCCCAGCTGATGAATTTGGATCGTCGAGTAAACAAATTTTCCTAATCTTTCTGTTCAAGCGCCATCTAC | 0.841 RPM ratio (pull-down/input) |
| GATGATTGTTCTCCCAGCTGATGAATTTTATGGCTCGAGTAAACAAATTTTCCTAATCTTTCTGTTCAAGCGCCATCTAC | 0.839 RPM ratio (pull-down/input) |
| GATGATTGTTCTCCCAGCTGATGAATTGCCGAAATCGAGTAAACAAATTTTCCTAATCTTTCTGTTCAAGCGCCATCTAC | 1.02 RPM ratio (pull-down/input) |
| GATGATTGTTCTCCCAGCTGATGAATTTTATCCATCGAGTAAACAAATTTTCCTAATCTTTCTGTTCAAGCGCCATCTAC | 1.04 RPM ratio (pull-down/input) |
| GATGATTGTTCTCCCAGCTGATGAATTCACGAGCTCGAGTAAACAAATTTTCCTAATCTTTCTGTTCAAGCGCCATCTAC | 0.831 RPM ratio (pull-down/input) |
| GATGATTGTTCTCCCAGCTGATGAATTACATTCCTCGAGTAAACAAATTTTCCTAATCTTTCTGTTCAAGCGCCATCTAC | 1.2 RPM ratio (pull-down/input) |
| GATGATTGTTCTCCCAGCTGATGAATTACGGCCGTCGAGTAAACAAATTTTCCTAATCTTTCTGTTCAAGCGCCATCTAC | 0.888 RPM ratio (pull-down/input) |
| GATGATTGTTCTCCCAGCTGATGAATTGTCAAACTCGAGTAAACAAATTTTCCTAATCTTTCTGTTCAAGCGCCATCTAC | 1.02 RPM ratio (pull-down/input) |
| GATGATTGTTCTCCCAGCTGATGAATTGAGCATCTCGAGTAAACAAATTTTCCTAATCTTTCTGTTCAAGCGCCATCTAC | 1.01 RPM ratio (pull-down/input) |
| GATGATTGTTCTCCCAGCTGATGAATTCAGGATGTCGAGTAAACAAATTTTCCTAATCTTTCTGTTCAAGCGCCATCTAC | 0.854 RPM ratio (pull-down/input) |
| GATGATTGTTCTCCCAGCTGATGAATTCACGCTATCGAGTAAACAAATTTTCCTAATCTTTCTGTTCAAGCGCCATCTAC | 1.08 RPM ratio (pull-down/input) |
| GATGATTGTTCTCCCAGCTGATGAATTGCGGATATCGAGTAAACAAATTTTCCTAATCTTTCTGTTCAAGCGCCATCTAC | 1.17 RPM ratio (pull-down/input) |
| GATGATTGTTCTCCCAGCTGATGAATTATTGCGATCGAGTAAACAAATTTTCCTAATCTTTCTGTTCAAGCGCCATCTAC | 1.14 RPM ratio (pull-down/input) |
| GATGATTGTTCTCCCAGCTGATGAATTGCAATACTCGAGTAAACAAATTTTCCTAATCTTTCTGTTCAAGCGCCATCTAC | 1.34 RPM ratio (pull-down/input) |
| GATGATTGTTCTCCCAGCTGATGAATTCGATTGGTCGAGTAAACAAATTTTCCTAATCTTTCTGTTCAAGCGCCATCTAC | 0.866 RPM ratio (pull-down/input) |
| GATGATTGTTCTCCCAGCTGATGAATTGCGTTTATCGAGTAAACAAATTTTCCTAATCTTTCTGTTCAAGCGCCATCTAC | 1.46 RPM ratio (pull-down/input) |
| GATGATTGTTCTCCCAGCTGATGAATTCGTTGTGTCGAGTAAACAAATTTTCCTAATCTTTCTGTTCAAGCGCCATCTAC | 1.1 RPM ratio (pull-down/input) |
| GATGATTGTTCTCCCAGCTGATGAATTGAAGCCTTCGAGTAAACAAATTTTCCTAATCTTTCTGTTCAAGCGCCATCTAC | 0.888 RPM ratio (pull-down/input) |
| GATGATTGTTCTCCCAGCTGATGAATTATCCCCTTCGAGTAAACAAATTTTCCTAATCTTTCTGTTCAAGCGCCATCTAC | 0.963 RPM ratio (pull-down/input) |
| GATGATTGTTCTCCCAGCTGATGAATTCCAAATCTCGAGTAAACAAATTTTCCTAATCTTTCTGTTCAAGCGCCATCTAC | 0.84 RPM ratio (pull-down/input) |
| GATGATTGTTCTCCCAGCTGATGAATTGTCACGCTCGAGTAAACAAATTTTCCTAATCTTTCTGTTCAAGCGCCATCTAC | 0.98 RPM ratio (pull-down/input) |

| Sequence | binding signal |
| --- | --- |
| GATGATTGTTCTCCCAGCTGATGAATTTGCCTGGTCGAGTAAACAAATTTTCCTAATCTTTCTGTTCAAGCGCCATCTAC | 0.802 RPM ratio (pull-down/input) |
| GATGATTGTTCTCCCAGCTGATGAATTGTCCGGGTCGAGTAAACAAATTTTCCTAATCTTTCTGTTCAAGCGCCATCTAC | 0.835 RPM ratio (pull-down/input) |
| GATGATTGTTCTCCCAGCTGATGAATTGCGGCAATCGAGTAAACAAATTTTCCTAATCTTTCTGTTCAAGCGCCATCTAC | 1.29 RPM ratio (pull-down/input) |
| GATGATTGTTCTCCCAGCTGATGAATTGTTGAACTCGAGTAAACAAATTTTCCTAATCTTTCTGTTCAAGCGCCATCTAC | 1.06 RPM ratio (pull-down/input) |
| GATGATTGTTCTCCCAGCTGATGAATTCTGCGTGTCGAGTAAACAAATTTTCCTAATCTTTCTGTTCAAGCGCCATCTAC | 0.955 RPM ratio (pull-down/input) |
| GATGATTGTTCTCCCAGCTGATGAATTTATTTTGTCGAGTAAACAAATTTTCCTAATCTTTCTGTTCAAGCGCCATCTAC | 1.62 RPM ratio (pull-down/input) |
| GATGATTGTTCTCCCAGCTGATGAATTGCTGCGTTCGAGTAAACAAATTTTCCTAATCTTTCTGTTCAAGCGCCATCTAC | 1.02 RPM ratio (pull-down/input) |
| GATGATTGTTCTCCCAGCTGATGAATTACAGCATTCGAGTAAACAAATTTTCCTAATCTTTCTGTTCAAGCGCCATCTAC | 1.35 RPM ratio (pull-down/input) |
| GATGATTGTTCTCCCAGCTGATGAATTTGTGGCCTCGAGTAAACAAATTTTCCTAATCTTTCTGTTCAAGCGCCATCTAC | 1.06 RPM ratio (pull-down/input) |
| GATGATTGTTCTCCCAGCTGATGAATTCAGCTTGTCGAGTAAACAAATTTTCCTAATCTTTCTGTTCAAGCGCCATCTAC | 0.872 RPM ratio (pull-down/input) |
| GATGATTGTTCTCCCAGCTGATGAATTTCGTCAATCGAGTAAACAAATTTTCCTAATCTTTCTGTTCAAGCGCCATCTAC | 1.08 RPM ratio (pull-down/input) |
| GATGATTGTTCTCCCAGCTGATGAATTTTGAACTTCGAGTAAACAAATTTTCCTAATCTTTCTGTTCAAGCGCCATCTAC | 0.94 RPM ratio (pull-down/input) |
| GATGATTGTTCTCCCAGCTGATGAATTATCACGTTCGAGTAAACAAATTTTCCTAATCTTTCTGTTCAAGCGCCATCTAC | 1.03 RPM ratio (pull-down/input) |
| GATGATTGTTCTCCCAGCTGATGAATTAAGTCTATCGAGTAAACAAATTTTCCTAATCTTTCTGTTCAAGCGCCATCTAC | 0.866 RPM ratio (pull-down/input) |
| GATGATTGTTCTCCCAGCTGATGAATTGACGCGTTCGAGTAAACAAATTTTCCTAATCTTTCTGTTCAAGCGCCATCTAC | 1.11 RPM ratio (pull-down/input) |
| GATGATTGTTCTCCCAGCTGATGAATTAGGTGGCTCGAGTAAACAAATTTTCCTAATCTTTCTGTTCAAGCGCCATCTAC | 0.87 RPM ratio (pull-down/input) |
| GATGATTGTTCTCCCAGCTGATGAATTCAAATTATCGAGTAAACAAATTTTCCTAATCTTTCTGTTCAAGCGCCATCTAC | 0.993 RPM ratio (pull-down/input) |
| GATGATTGTTCTCCCAGCTGATGAATTAGCCCGGTCGAGTAAACAAATTTTCCTAATCTTTCTGTTCAAGCGCCATCTAC | 0.779 RPM ratio (pull-down/input) |
| GATGATTGTTCTCCCAGCTGATGAATTCGTGCAGTCGAGTAAACAAATTTTCCTAATCTTTCTGTTCAAGCGCCATCTAC | 0.909 RPM ratio (pull-down/input) |
| GATGATTGTTCTCCCAGCTGATGAATTACTGCCGTCGAGTAAACAAATTTTCCTAATCTTTCTGTTCAAGCGCCATCTAC | 0.959 RPM ratio (pull-down/input) |
| GATGATTGTTCTCCCAGCTGATGAATTAGTTCCATCGAGTAAACAAATTTTCCTAATCTTTCTGTTCAAGCGCCATCTAC | 0.972 RPM ratio (pull-down/input) |
